Source: PubChem BioAssay AID504339 (National Center for Advancing Translational Sciences (NCATS), 2011)
The campaign covered roughly 390,000 compounds. About 17,000 (4.4%) were called active. The shares of active, inactive and inconclusive entries below differ from those in the screen. The call rests on the fitted dose curve; in most records, active means well fitted inhibition curve with a large enough effect; inconclusive means small, poorly fitted or top-dose-only effect; inactive means no such curve, though single readings can be large or run the other way. Potencies of inconclusive entries are doubtful fits and often do not repeat.

target: Lysine-specific demethylase 4A (Homo sapiens) (UniProt O75164); assay: qHTS Assay for Inhibitors of JMJD2A-Tudor Domain; details: AlphaScreen JMJD2A-Tudor / H3K4me3 peptide binding; activity change, negative = inhibition: at 114 µM (top of the series); further: nearly all actives have a fitted effect of over 50% in size
On the % scale 0 is the no-effect control and ±100 the full control effect; potency means the concentration at half of the fitted maximal effect; tags describe the fitted curve by direction and shape.

Chain of UniProt O75164 (O75164 whole entry, looked up, the tested form may be a part): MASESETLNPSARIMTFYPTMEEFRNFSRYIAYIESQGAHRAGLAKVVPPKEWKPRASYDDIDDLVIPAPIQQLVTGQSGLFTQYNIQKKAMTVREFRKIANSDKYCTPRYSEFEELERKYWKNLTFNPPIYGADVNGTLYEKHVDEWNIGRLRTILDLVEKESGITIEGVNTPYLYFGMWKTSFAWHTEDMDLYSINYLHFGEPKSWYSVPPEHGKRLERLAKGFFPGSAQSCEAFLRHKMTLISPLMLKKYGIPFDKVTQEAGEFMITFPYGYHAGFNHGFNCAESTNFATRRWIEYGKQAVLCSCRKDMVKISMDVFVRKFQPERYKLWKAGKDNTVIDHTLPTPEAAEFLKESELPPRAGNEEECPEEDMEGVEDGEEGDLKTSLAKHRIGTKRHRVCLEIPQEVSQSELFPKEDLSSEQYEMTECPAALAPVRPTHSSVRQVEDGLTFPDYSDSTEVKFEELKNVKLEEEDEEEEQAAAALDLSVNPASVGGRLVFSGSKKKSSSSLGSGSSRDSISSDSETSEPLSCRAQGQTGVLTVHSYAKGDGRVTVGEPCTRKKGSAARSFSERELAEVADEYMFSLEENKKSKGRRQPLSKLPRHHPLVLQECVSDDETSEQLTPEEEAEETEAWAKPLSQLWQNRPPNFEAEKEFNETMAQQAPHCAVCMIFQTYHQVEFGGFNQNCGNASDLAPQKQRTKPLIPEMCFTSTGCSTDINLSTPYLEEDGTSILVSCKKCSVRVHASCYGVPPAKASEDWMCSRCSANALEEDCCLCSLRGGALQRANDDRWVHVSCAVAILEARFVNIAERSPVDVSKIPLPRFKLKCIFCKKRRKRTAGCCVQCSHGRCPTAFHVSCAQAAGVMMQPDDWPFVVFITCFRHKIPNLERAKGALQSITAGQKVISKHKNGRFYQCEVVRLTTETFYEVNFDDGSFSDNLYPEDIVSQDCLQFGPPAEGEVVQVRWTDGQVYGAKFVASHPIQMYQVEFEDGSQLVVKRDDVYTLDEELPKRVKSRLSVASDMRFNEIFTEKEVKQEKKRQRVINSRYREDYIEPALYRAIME

| SMILES | Potency | activity change, negative = inhibition |
| --- | --- | --- |
| Cc1noc(NS(=O)(=O)c2ccc(N/C=C\C(=O)c3ccc(Br)cc3)cc2)c1C | inconclusive: 56.2 µM [inhibitor, partial curve] | – |
| CC(C)N1CCc2c(sc(N)c2C#N)C1 | inactive | – |
| Cc1ccc(NC(=O)CCS(=O)(=O)c2ccc(Br)s2)cc1 | inconclusive: 25.1 µM [inhibitor, single point] | – |
| Cc1cc(C)c(-c2nc3ccccc3s2)[nH]1 | inactive | – |
| Cc1ccc(CCNC(=O)c2sc3ncccc3c2-n2cccc2)cc1 | inconclusive: 56.2 µM [inhibitor, partial curve] | – |
| O=C(CCCN1C(=O)/C(=C\c2cccs2)SC1=S)Nc1cccc(C(=O)O)c1 | inconclusive: 31.6 µM [inhibitor, full curve, poor fit] | – |
| O=[N+]([O-])c1cccc(C=NNc2ccccc2)c1 | active: 39.8 µM | – |
| NC(=O)CC(NC(=O)Cc1cccc2ccccc12)c1ccc(NC2CCCCCCC2)c([N+](=O)[O-])c1 (stereo not given) | inconclusive: 89.1 µM [inhibitor, partial curve] | – |
| COc1cc(C2Nc3cccc4cccc(c34)N2)cc(OC)c1O | inconclusive: 56.2 µM [inhibitor, partial curve] | – |
| CN(C(=O)c1ccc(=O)n(Cc2ccc(Cl)cc2)c1)c1ccccc1 | inactive | – |
| CCOc1ccc(NC(=O)C(=O)NCCN2CCN(S(=O)(=O)c3ccccc3)CC2)cc1 | inconclusive: 25.1 µM [inhibitor, single point] | – |
| O=C(Nc1ccccc1N1CCN(C(=O)c2ccc(Cl)cc2)CC1)c1cc2ccccc2o1 | – | inactive: -6.11% [at 11.4 µM] |
| CCOc1ccc(C(=O)N2CCCN(C(=O)c3ccc(OCC)cc3)CC2)cc1 | inactive | – |
| CCN1C(=O)/C(=C\c2ccc(-c3ccc([N+](=O)[O-])cc3OC)o2)SC1=Nc1cccc(C(=O)O)c1 | active: 56.2 µM | – |
| CCc1nnc(NC(=O)c2nc(S(=O)(=O)Cc3ccccc3)ncc2Cl)s1 | active: 7.94 µM | – |
| N#C/C(=N\Nc1ccc(F)cc1)C(=O)C1CC1 | inactive | – |
| NC(=O)c1ccsc1NC(=O)COC(=O)c1nc(Cl)ccc1Cl | inactive | – |
| Cc1cccc(C=NOCCc2ccccc2)n1 | inactive | – |
| O=C1c2cc(Br)ccc2N(Cc2ccc(Br)cc2)S(=O)(=O)C1c1cc(Cl)c(Cl)cc1[N+](=O)[O-] (stereo not given) | active: 35.5 µM | – |
| O=S(=O)(c1ccccc1)N1N=C(c2cccs2)CC1c1cccc(O)c1 (stereo not given) | inactive | – |
| CN=c1scc(C)n1/N=C/c1cc(Br)c(O)c(OC)c1 | inconclusive: 79.4 µM [inhibitor, partial curve] | – |
| COc1ccc(Cl)cc1NC(=O)C(C)n1nnc2sc3c(c2c1=O)CCCC3 (stereo not given) | inactive | – |
| COc1ccccc1N1CCN(C(c2cc3ccc(C)cc3[nH]c2=O)c2nnnn2C2CCCC2)CC1 (stereo not given) | inconclusive: 12.6 µM [inhibitor, partial curve] | – |

| SMILES | Potency | activity change, negative = inhibition |
| --- | --- | --- |
| C=CCc1cccc(/C=N/c2ncccc2O)c1O | inconclusive: 89.1 µM [inhibitor, partial curve] | – |
| Cc1ccc(Nc2c(-c3ccc(C)o3)nc3ccccn23)cc1 | inconclusive: 44.7 µM [inhibitor, partial curve] | – |
| C=CCn1c(C)cc(C(=O)CSc2nnc(NCc3ccccc3)s2)c1C | inconclusive: 31.6 µM [inhibitor, full curve] | – |
| COc1cccc(NC(=O)CSc2nc3c(sc4ccccc43)c(=O)n2CCN(C)C)c1 | inconclusive: 14.1 µM [inhibitor, partial curve] | – |
| COc1ccc(-n2cc(CNCCc3cnc[nH]3)c(-c3cccc(F)c3)n2)cc1 | inconclusive: 56.2 µM [inhibitor, partial curve] | – |
| CCN(CC)c1ccc(NC(=O)c2cc(CN3CCCC3)on2)c(C)c1 | inconclusive: 50.1 µM [inhibitor, partial curve] | – |
| Cc1cccc2cc(CN(Cc3ccco3)C(=O)NC3CCCCC3)c(=O)[nH]c12 | inconclusive: 56.2 µM [inhibitor, partial curve] | – |
| CC[C@H](C)[C@H](NC(=O)[C@H](Cc1ccc(O)cc1)NC(=O)[C@@H](N)C(C)C)C(=O)N[C@@H](Cc1cnc[nH]1)C(=O)N1CCC[C@H]1C(=O)N[C@@H](Cc1ccccc1)C(=O)O | inconclusive: 50.1 µM [inhibitor, partial curve] | – |
| CCS(=O)(=O)N1CCN(c2ccc([N+](=O)[O-])c(NCc3ccccc3)c2)CC1 | inconclusive: 12.6 µM [inhibitor, partial curve] | – |
| CCNC(=O)CCSc1nnc(-c2ccc(O)cc2)o1 | inactive | – |
| COc1ccc(C2=CC3=C(Br)C(=O)C(C)(OC(=O)c4cccs4)C(=O)C3=CO2)cc1 (stereo not given) | active: 28.2 µM | – |
| COc1cc(Br)cc(CN2CCN(C/C=C/c3ccccc3)CC2)c1O | inconclusive: 44.7 µM [inhibitor, partial curve] | – |
| Cc1ccc(-c2[nH]c3ccccc3c2C(C[N+](=O)[O-])c2ccco2)cc1 (stereo not given) | inconclusive: 44.7 µM [inhibitor, partial curve] | – |
| O=C(O)C1Cc2c([nH]c3ccccc23)C(c2ccc3c(c2)OCO3)N1 (stereo not given) | inconclusive: 15.8 µM [inhibitor, full curve] | – |
| O=C1c2ccccc2C(Nc2ccc3c(c2)OCCO3)N1c1ccc(Cl)cn1 (stereo not given) | inconclusive: 25.1 µM [inhibitor, full curve] | – |
| COc1ccc(C2Nc3ccccc3NC3=C2C(=O)CC(C)(C)C3)cc1O (stereo not given) | active: 12.6 µM | – |
| Cc1cccc(OCC(=O)N(C)CC(=O)Nc2cccc(F)c2)c1C | inactive | – |
| COc1ccc(N2CCN(c3cc(C)nc4ccc(OC)cc34)CC2)cc1 | active: 44.7 µM | – |
| O=C(NCc1n[nH]c(=S)n1Cc1ccccc1)c1ccc(Cl)cc1Cl | inactive | – |
| CCCC(CC)Sc1nc2c([nH]1)c(=S)n(C)c(=O)n2C (stereo not given) | inconclusive: 31.6 µM [inhibitor, full curve, poor fit] | – |
| CCn1c2ccccc2c2cc(/C=N/n3cn[nH]c3=S)ccc21 | active: 17.8 µM | – |
| O=C(NCC1CCCO1)c1ccc2c(=O)n(-c3ccccc3)c(=S)[nH]c2c1 (stereo not given) | inactive | – |
